The text below walks through data of patent US12692294B2, “Engineered NRG-1 variants with improved selectivity toward ErbB4 but not against ErbB3” (Amgen Inc., priority 2021, dated 2026).

Numbering of substitutions follows the chain as printed. Names may count otherwise. “And” between values parts separate entries of the source, which are not always exact repeats. Equal values may be shown once. Some results are limits rather than exact numbers.

B1: huNRG1(S177-F229)(NRGE1D)::1KmodT482V, M493L)::huFcSEFL2 (Pb): Fc fusion of NRG1 variant SEQ ID NO:126 (protein)
chain: SHLVKCGESHKSFCVNGGECYMVEGSSIPSRYLCKCPNEFTGDRCQEDFMASFGSGSATGGSGSVASSGSGSATHL[letters of human IgG1 Fc with R292C N297G V302C (EU numbers) not shown]
modifications: huNRG1(S177-F229) (NRGE1D)::1KmodT482V,M493L)::huFcSEFL2 (Pb)
B2: huNRG1(S177-Q237)(3H8)::3xG4S::huFcSEFL2 (Pb): Fc fusion of NRG1 variant SEQ ID NO:171 (protein)
chain: SHLVKCGEKHKSFCVNGGECYMVEGSSIPSRYLCKCPNEFTGDRCQEDFMASFYKAEELYQGGGGSGGGGSGGGGS[letters of human IgG1 Fc with R292C N297G V302C (EU numbers) not shown]
modifications: huNRG1(S177-Q237)(3H8)::3xG4S::huFcSEFL2 (Pb)
B3: huNRG1(S177-S228)(3H8)::3x(G4Q)::huFcSEFL2 (Pb): Fc fusion of NRG1 variant SEQ ID NO:169 (protein)
chain: SHLVKCGEKHKSFCVNGGECYMVEGSSIPSRYLCKCPNEFTGDRCQEDFMASGGGGQGGGGQGGGGQ[letters of human IgG1 Fc with changes not shown]
modifications: huNRG1(S177-S228)(3H8)::3x(G4Q)::huFcSEFL2 (Pb)
B4: huNRG1(S177-Q237)(NRGE1C)::GG::huFcSEFL2 (Pb): Fc fusion of NRG1 variant SEQ ID NO:124 (protein)
chain: SHLVKCGEKHKSFCVNGGECFMIEGPSNPSRYLCKCPNEFTGDRCQEDFMASFYKAEELYQGG[letters of human IgG1 Fc with R292C N297G V302C (EU numbers) not shown]
modifications: huNRG1(S177-Q237)(NRGE1C)::GG::huFcSEFL2 (Pb)
B5: huNRG1(S177-Q237)(NRGE1D)::GG::huFcSEFL2 (Pb): Fc fusion of NRG1 variant SEQ ID NO:131 (protein)
chain: B4 chain with K9S, F21Y, I23V, P26S, N28I
modifications: huNRG1(S177-Q237)(NRGE1D)::GG::huFcSEFL2 (Pb)
B6: huNRG1(S177-F229)(NRGE1D)::(G4A)2:G4::huFcSEFL2 (Pb): Fc fusion of NRG1 variant SEQ ID NO:126 (protein)
chain: SHLVKCGESHKSFCVNGGECYMVEGSSIPSRYLCKCPNEFTGDRCQEDFMASFGGGGAGGGGAGGGG[letters of human IgG1 Fc with R292C N297G V302C (EU numbers) not shown]
modifications: huNRG1(S177-F229)(NRGE1D)::(G4A)2G4::huFcSEFL2 (Pb)
B7: huNRG1(S177-F229)(NRGE1D)::(G4S)2::G4::huFcSEFL2 (Pb): Fc fusion of NRG1 variant SEQ ID NO:126 (protein)
chain: B6 chain with A58S, A63S
modifications: huNRG1(S177-F229)(NRGE1D) (G4E)::G4S::G4::huFcSEFL2 (Pb)
B8: huNRG1(S177-F229)(NRGE1D)(G4E)::G4S::G4::huFcSEFL2 (Pb): Fc fusion of NRG1 variant SEQ ID NO:126 (protein)
chain: B6 chain with A58E, A63S
modifications: huNRG1(S177-F229)(NRGE1D) (NRGmod)::G4::huFcSEFL2 (Pb)
B9: huNRG1(S177-Q237)(3H8)::3x(G4Q)::huFcSEFL2 (Pb): Fc fusion of NRG1 variant SEQ ID NO:171 (protein)
chain: SHLVKCGEKHKSFCVNGGECYMVEGSSIPSRYLCKCPNEFTGDRCQEDFMASFYKAEELYQGGGGQGGGGQGGGGQ[letters of human IgG1 Fc with changes not shown]
modifications: huNRG1(S177-Q237)(3H8)::3x(G4Q)::huFcSEFL2 (Pb)
B10: huNRG1(S177-F229)(NRGE1D)::3x(G4Q)::huFcSEFL2 (Pb): Fc fusion of NRG1 variant SEQ ID NO:126 (protein)
chain: SHLVKCGESHKSFCVNGGECYMVEGSSIPSRYLCKCPNEFTGDRCQEDFMASFGGGGQGGGGQGGGGQ[letters of human IgG1 Fc with changes not shown]
modifications: huNRG1(S177-F229) (NRGE1D)::1KmodT482V,M493L)::huFcSEFL2 (Pb)
B11: huNRG1(S177-F229)(3H8)::3x(G4Q)::huFcSEFL2 (Pb): Fc fusion of NRG1 variant SEQ ID NO:170 (protein)
chain: SHLVKCGEKHKSFCVNGGECYMVEGSSIPSRYLCKCPNEFTGDRCQEDFMASFGGGGQGGGGQGGGGQ[letters of human IgG1 Fc with changes not shown]
modifications: huNRG1(S177-Q237)(3H8)::3x(G4Q)::huFcSEFL2 (Pb)
B12: huNRG1(S177-F229)(NRGE1C)::3x(G4Q)::huFcSEFL2 (Pb): Fc fusion of NRG1 variant SEQ ID NO:117 (protein)
chain: SHLVKCGEKHKSFCVNGGECFMIEGPSNPSRYLCKCPNEFTGDRCQEDFMASFGGGGQGGGGQGGGGQ[letters of human IgG1 Fc with changes not shown]
modifications: huNRG1(S177-F229)(NRGE1C)::3x(G4Q)::huFcSEFL2 (Pb)
B13: huNRG1(S177-F229)(NRGE1C)(NRGmod)::G4::huFcSEFL2 (Pb): Fc fusion of NRG1 variant SEQ ID NO:117 (protein)
chain: SHLVKCGEKHKSFCVNGGECFMIEGPSNPSRYLCKCPNEFTGDRCQEDFMASFAAAEELYQGGGG[letters of human IgG1 Fc with R292C N297G V302C (EU numbers) not shown]
modifications: huNRG1(S177-F229)(NRGE1C) (NRGmod)::G4::huFcSEFL2 (Pb)
B14: huNRG1(S177-F229)(NRGE1D)(NRGmod)::G4::huFcSEFL2 (Pb): Fc fusion of NRG1 variant SEQ ID NO:126 (protein)
chain: B13 chain with K9S, F21Y, I23V, P26S, N28I
modifications: huNRG1(S177-F229)(NRGE1D) (NRGmod)::G4::huFcSEFL2 (Pb)

The target in one experiment is T1, ErbB4 (Rattus norvegicus, UniProt Q62956).
T1 construct: forming the ErbB2/ErbB4 complex in cardiomyocytes and the ErbB2/ErbB3 complex in Schwann cells; endogenous in cells; host or cells: primary neonatal rat cardiomyocytes (Sprague Dawley pups, 0 to 4 days old)
T1 sequence (Q62956 26-1308): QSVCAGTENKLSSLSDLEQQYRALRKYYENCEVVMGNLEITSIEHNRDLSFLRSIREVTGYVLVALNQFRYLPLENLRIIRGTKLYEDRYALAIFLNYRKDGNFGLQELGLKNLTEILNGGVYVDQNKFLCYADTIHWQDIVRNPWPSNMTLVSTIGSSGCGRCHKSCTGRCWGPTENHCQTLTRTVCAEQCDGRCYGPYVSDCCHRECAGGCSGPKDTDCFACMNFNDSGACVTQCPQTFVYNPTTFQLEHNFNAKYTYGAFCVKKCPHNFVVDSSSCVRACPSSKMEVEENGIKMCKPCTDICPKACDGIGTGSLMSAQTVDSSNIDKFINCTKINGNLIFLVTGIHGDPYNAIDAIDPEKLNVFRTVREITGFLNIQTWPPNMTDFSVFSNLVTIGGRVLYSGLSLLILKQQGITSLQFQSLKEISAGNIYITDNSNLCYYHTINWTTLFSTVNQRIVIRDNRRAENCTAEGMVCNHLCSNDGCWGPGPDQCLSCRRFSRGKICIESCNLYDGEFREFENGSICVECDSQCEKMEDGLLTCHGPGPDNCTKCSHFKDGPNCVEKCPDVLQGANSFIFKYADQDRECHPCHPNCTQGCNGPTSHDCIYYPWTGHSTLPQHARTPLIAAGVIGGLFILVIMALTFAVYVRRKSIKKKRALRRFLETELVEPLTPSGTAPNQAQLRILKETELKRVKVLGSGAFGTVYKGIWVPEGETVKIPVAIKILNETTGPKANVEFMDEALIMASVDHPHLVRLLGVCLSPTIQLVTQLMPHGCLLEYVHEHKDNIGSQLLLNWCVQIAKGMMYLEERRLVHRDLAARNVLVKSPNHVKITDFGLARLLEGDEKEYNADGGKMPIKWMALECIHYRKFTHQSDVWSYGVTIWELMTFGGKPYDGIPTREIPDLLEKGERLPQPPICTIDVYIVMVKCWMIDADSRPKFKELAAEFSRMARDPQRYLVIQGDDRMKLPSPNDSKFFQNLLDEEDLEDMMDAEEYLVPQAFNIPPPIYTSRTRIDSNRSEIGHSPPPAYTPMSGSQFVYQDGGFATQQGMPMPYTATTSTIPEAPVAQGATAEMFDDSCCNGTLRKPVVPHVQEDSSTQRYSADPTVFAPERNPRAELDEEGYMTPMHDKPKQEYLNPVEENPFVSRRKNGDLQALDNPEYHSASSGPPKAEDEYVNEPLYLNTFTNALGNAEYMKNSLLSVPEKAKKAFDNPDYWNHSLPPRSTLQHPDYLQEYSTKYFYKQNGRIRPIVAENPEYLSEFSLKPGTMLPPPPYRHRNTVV
T1 sequence (P06494 23-1257 partner): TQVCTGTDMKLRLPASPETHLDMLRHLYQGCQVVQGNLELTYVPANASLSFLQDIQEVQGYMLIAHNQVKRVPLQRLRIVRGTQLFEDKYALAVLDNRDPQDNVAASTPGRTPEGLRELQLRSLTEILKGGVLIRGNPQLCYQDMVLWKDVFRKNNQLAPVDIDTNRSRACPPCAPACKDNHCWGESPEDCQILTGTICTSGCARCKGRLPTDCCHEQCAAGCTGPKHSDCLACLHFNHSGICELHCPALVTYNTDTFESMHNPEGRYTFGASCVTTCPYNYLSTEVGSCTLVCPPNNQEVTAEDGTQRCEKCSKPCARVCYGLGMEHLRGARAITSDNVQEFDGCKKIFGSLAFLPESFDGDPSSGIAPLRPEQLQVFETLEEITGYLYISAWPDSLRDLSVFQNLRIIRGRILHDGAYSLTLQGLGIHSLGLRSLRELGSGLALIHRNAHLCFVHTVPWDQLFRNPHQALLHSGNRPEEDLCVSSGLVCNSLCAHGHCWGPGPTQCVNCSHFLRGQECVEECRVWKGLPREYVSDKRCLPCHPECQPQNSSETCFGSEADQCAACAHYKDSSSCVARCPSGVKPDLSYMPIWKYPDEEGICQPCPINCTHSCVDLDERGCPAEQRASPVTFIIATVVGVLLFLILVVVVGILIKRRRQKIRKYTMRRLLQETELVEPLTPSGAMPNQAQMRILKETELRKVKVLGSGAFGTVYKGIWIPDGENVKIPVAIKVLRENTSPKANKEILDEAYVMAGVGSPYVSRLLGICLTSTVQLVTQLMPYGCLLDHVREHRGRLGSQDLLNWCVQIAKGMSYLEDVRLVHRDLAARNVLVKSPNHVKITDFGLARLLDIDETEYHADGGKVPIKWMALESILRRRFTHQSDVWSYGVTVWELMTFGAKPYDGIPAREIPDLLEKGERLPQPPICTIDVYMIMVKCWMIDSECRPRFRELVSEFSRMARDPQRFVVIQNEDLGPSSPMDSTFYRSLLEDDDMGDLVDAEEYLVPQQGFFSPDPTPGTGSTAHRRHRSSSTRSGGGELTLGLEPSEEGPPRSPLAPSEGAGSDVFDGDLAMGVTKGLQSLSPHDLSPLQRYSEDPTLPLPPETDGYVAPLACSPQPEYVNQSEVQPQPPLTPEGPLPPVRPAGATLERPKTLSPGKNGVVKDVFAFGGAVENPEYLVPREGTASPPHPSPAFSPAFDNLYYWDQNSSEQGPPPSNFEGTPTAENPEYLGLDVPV
Briefly: In vitro phosphorylation of Akt in neonatal rat cardiomyocytes. Type of experiment: cell-based. To be noted: Akt (Serine 473) phosphorylation, neonatal rat cardiomyocytes, 15 minutes treatment; read-out: Cardiomyocyte (CM) (ErbB4) Avg EC50. A digest of the protocol:
(§1)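 Neonatal Sprague Dawley rat cardiomyocytes (ErbB2/ErbB4) and rat Schwann cells (ErbB2/ErbB3), serum-starved 16 h, were exposed 15 min to neuregulin variant titrations. Ser473 phospho- and total Akt measured by MSD electrochemiluminescence; percent phosphorylation fitted by 4-parameter curve for EC50, top value giving CM % agonism.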
In the case of B1, the half-maximal effective concentration (EC50) was determined as 0.34 nM.

On to B2, for which the 50% effective concentration (EC50) worked out at 0.2 nM.

In the case of B3, the concentration for a half-maximal effect (EC50) came to 43.5 nM.

As for B4, the concentration giving a half-maximal response (EC50) is 0.41 nM and 0.476 nM.

Turning to B5, the EC50 is 0.33 nM and 0.303 nM.

Take B6: the half-maximal effective concentration (EC50) amounted to 0.32 nM.

Take B7: the EC50 is 0.46 nM.

With B8, the EC50 was determined as 0.35 nM.

B9: the concentration giving a half-maximal response (EC50) turned out to be 0.24 nM.

As for B10, the EC50 was 0.29 nM and 0.3 nM.

B11: the EC50 came to 0.28 nM.

As for B12, the concentration for a half-maximal effect (EC50) was 0.24 nM and 0.33 nM.

For B13, the EC50 came to 0.87 nM.

For the molecule B14, the 50% effective concentration (EC50) came to 0.54 nM.

Still in this experiment, the particulars now being: ratio of EC50s Schwann cells/cardiomyocytes.
In the case of B1, the “Selectivity SC/CM” value was greater than 10000.

With B2, the “Selectivity SC/CM” value is listed as greater than 10000.

Take B3: the “Selectivity SC/CM” value is given as 0.6.

Regarding B4, the “Selectivity SC/CM” value is given as greater than 10000.

In the case of B5, the “Selectivity SC/CM” value is listed as greater than 10000.

In the case of B6, the “Selectivity SC/CM” value is greater than 10000.

Consider B7, for which the “Selectivity SC/CM” value is listed as greater than 10000.

With B8, the “Selectivity SC/CM” value is greater than 10000.

As for B9, the “Selectivity SC/CM” value is listed as 414.

As to B10, the “Selectivity SC/CM” value is 1401 and 1491.

Regarding B11, the “Selectivity SC/CM” value is listed as 527.

For B12, the “Selectivity SC/CM” value is greater than 10000.

Take B13: the “Selectivity SC/CM” value is listed as greater than 10000.

As to B14, the “Selectivity SC/CM” value is recorded as greater than 10000.

The experiment is the same for the next values; noted with them: top value of the Akt phosphorylation data points in cardiomyocytes; wild-type control 100.
As to B1, the “CM % Agonism AVG” value turned out to be 83.4%.

Take B4: the “CM % Agonism AVG” value turned out to be 82%.

Regarding B5, the “CM % Agonism AVG” value is on record as 83%.

In the case of B6, the “CM % Agonism AVG” value is listed as 78.8%.

Consider B7, for which the “CM % Agonism AVG” value turned out to be 80.5%.

Regarding B8, the “CM % Agonism AVG” value amounted to 85%.

As for B10, the “CM % Agonism AVG” value turned out to be 74.4%.

On to B12, for which the “CM % Agonism AVG” value amounted to 77.3%.

Turning to B13, the “CM % Agonism AVG” value worked out at 75.5%.

Take B14: the “CM % Agonism AVG” value is recorded as 74.9%.

For the next experiment, the target named is T2, ErbB3 (Rattus norvegicus, UniProt Q62799).
T2 construct: forming the ErbB2/ErbB4 complex in cardiomyocytes and the ErbB2/ErbB3 complex in Schwann cells; endogenous in cells; host or cells: rat Schwann cells
T2 sequence (Q62799 20-1339): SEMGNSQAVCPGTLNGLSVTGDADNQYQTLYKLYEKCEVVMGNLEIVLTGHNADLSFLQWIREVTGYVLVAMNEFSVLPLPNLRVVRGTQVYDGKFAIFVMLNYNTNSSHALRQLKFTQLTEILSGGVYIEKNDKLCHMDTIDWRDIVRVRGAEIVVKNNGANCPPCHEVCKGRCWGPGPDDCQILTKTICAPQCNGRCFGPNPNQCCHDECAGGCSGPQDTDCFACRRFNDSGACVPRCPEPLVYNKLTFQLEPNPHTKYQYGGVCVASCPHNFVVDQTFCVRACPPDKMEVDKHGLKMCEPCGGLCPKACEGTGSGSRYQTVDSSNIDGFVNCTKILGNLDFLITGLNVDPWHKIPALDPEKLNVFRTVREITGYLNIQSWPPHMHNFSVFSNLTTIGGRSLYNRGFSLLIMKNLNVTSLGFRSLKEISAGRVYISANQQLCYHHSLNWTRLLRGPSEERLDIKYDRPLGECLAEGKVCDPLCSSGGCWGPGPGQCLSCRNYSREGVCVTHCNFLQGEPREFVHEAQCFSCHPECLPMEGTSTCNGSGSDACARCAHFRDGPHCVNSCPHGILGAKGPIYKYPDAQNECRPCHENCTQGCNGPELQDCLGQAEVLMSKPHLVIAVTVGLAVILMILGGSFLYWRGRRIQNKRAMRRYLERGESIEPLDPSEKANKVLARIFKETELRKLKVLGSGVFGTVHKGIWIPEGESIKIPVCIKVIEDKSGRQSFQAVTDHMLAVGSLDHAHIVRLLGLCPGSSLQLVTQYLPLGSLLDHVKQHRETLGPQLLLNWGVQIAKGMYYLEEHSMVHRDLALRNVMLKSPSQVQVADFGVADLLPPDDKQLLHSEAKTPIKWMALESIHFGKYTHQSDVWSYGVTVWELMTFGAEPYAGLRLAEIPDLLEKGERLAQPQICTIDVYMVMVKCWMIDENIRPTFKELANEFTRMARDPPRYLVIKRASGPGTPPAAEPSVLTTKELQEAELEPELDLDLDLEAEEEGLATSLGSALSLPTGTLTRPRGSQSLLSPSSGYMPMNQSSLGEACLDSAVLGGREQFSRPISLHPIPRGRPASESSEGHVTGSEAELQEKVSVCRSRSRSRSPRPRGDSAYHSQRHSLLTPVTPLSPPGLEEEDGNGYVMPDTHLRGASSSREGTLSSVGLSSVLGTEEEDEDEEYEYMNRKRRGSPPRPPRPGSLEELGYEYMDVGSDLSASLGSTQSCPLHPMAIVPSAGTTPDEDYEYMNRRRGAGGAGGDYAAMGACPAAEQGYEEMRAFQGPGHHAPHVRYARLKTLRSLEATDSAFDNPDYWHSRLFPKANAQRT
T2 sequence (P06494 23-1257 partner): as the sequence (P06494 23-1257 partner) above
Briefly: In vitro phosphorylation of Akt in rat Schwann cells. Type of experiment: cell-based. To be noted: Akt (Serine 473) phosphorylation, 15 minutes treatment, read-out: Schwann cells (SC) (ErbB3) Avg EC50. A digest of the protocol: as §1
B1: the concentration for a half-maximal effect (EC50) is greater than 10000 nM.

For the molecule B2, the concentration giving a half-maximal response (EC50) is greater than 10000 nM.

Consider B3, for which the EC50 stood at 27.7 nM.

With B4, the EC50 is greater than 10000 nM.

As for B5, the half-maximal effective concentration (EC50) is greater than 10000 nM.

For B6, the EC50 was greater than 10000 nM.

Turning to B7, the concentration giving a half-maximal response (EC50) is greater than 10000 nM.

As for B8, the concentration giving a half-maximal response (EC50) was greater than 10000 nM.

For B9, the concentration for a half-maximal effect (EC50) was 100 nM.

With B10, the half-maximal effective concentration (EC50) is 410 nM and 446 nM.

For B11, the 50% effective concentration (EC50) came out at 149 nM.

For B12, the EC50 was greater than 10000 nM.

For B13, the EC50 is greater than 10000 nM.

Regarding B14, the EC50 is greater than 10000 nM.
